Source: PubChem BioAssay AID485294 (National Center for Advancing Translational Sciences (NCATS), 2010)
Among all 370,000 compounds or so, about 150 (0.041%) were called active. Inconclusive results, whose numbers are uncertain, are shown with a selection of clear calls. Calls follow the shape of the dose curve; as a rule, active = well fitted inhibition curve with a large enough effect; inconclusive = small, poorly fitted or top-dose-only effect; inactive = flat fitted curve, though single readings scatter. No potency is given beside an inconclusive call; the fits are too rough.

molecular target: Beta-lactamase (Escherichia coli (strain K12)) (UniProt P00811); assay: qHTS Inhibitors of AmpC Beta-Lactamase (assay with detergent); settings: AmpC hydrolysis of nitrocefin, absorbance 480 nm, 0.01% Triton; series mostly up to 114 µM; also: nearly all actives have a fitted effect of over 25% in size
Sequence of UniProt P00811 (P00811 whole entry, looked up): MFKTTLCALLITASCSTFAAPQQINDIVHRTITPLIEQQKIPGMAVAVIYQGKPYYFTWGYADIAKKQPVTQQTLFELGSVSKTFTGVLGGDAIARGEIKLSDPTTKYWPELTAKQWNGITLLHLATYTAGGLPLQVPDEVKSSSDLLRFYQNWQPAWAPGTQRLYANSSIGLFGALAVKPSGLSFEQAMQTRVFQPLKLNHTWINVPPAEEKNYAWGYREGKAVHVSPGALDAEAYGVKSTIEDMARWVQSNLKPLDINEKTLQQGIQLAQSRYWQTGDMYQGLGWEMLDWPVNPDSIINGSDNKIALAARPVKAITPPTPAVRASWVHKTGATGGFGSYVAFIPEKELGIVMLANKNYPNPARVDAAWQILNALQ
Method in brief: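 AmpC (5.3 nM in the dispensed reagent) in 20 mM phosphate pH 7.0 with 0.01% (detergent screen) or 0.0001% Triton X-100 was preincubated with compounds for 15 min at room temperature. Nitrocefin was then added from an 800 uM solution, and hydrolysis was followed at 480 nm.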
Potency is read from the fitted curve at half-maximal effect; tags tell the direction and shape of the fitted curve.

SMILES	Potency
CCC1CCCCN1C(=O)N[C@@H](CCSC)C(=O)OC (some centres undefined)	inconclusive [inhibitor, partial curve]
Cc1ccc(S(=O)(=O)c2cnc(SCC(=O)Nc3ccccc3C(F)(F)F)[nH]c2=O)cc1C	inactive
O=C1C=C(N2CCOCC2)c2ccccc2C1=O	inconclusive [inhibitor, partial curve, poor fit]
CC(C)CNS(=O)(=O)c1ccc(S(=O)(=O)N2CCN(C3CCCC3)CC2)cc1	inconclusive [inhibitor, full curve]
CC1(C)C2CCC1(C(=O)O)c1nc3ccccc3nc12 (centres undefined)	inconclusive [inhibitor, single point]
COc1ccc(C(=O)NCC(=O)OCc2ccc(F)cc2Cl)cc1OC	inconclusive [inhibitor, partial curve, poor fit]
CCC1=NN(C(=O)c2cccc(Br)c2)C(O)(c2ccc(Br)cc2)C1 (centres undefined)	inconclusive [inhibitor, partial curve, poor fit]
CN(C)C(=O)c1ccc(NC(=O)c2cc(-n3cnnc3)ccc2Cl)cc1	inconclusive [inhibitor, full curve]
O=C(NCc1ccc(F)cc1)C1CCN(S(=O)(=O)c2ccc3c(c2)CCCN3C(=O)C2CCC2)CC1	inactive
CCN(CC)S(=O)(=O)c1ccc(-c2nnco2)cc1	inconclusive [inhibitor, full curve, poor fit]
Cc1ccc(CN(C(=O)c2cc(=O)c3cc(C)cc(C)c3o2)C2CCS(=O)(=O)C2)cc1 (centres undefined)	inactive
COc1ccccc1NC(=O)c1cccc(S(=O)(=O)N2CCOCC2)c1	inconclusive [inhibitor, partial curve, poor fit]
CN(CC(=O)OCC(=O)NCC(F)(F)F)S(=O)(=O)c1ccc(Cl)cc1	inactive
O=C(O)Cn1nnc(-c2cccs2)n1	inactive
CC1=NN(/C(=N\c2nnc(C)s2)Nc2ccc(C)cc2)[C@H](c2ccc(C)cc2)S1	inactive
Cc1ccc(-n2nc(C)c3c2OC(N)=C(C#N)C3c2ccco2)cc1 (centres undefined)	inactive
C/C(=N\NC(=O)c1c(Br)c(C)nn1C)c1cccc(NC(=O)c2ccccc2C)c1	inactive
O=C(Oc1cccc(/C=N/Nc2nc(N3CCOCC3)nc(N3CCOCC3)n2)c1)c1ccco1	inconclusive [inhibitor, full curve, poor fit]
CCn1c(CNc2ccc(F)cc2)nnc1SCCN1CCCCC1	inconclusive [inhibitor, partial curve]
COC(=O)N(C)c1nc2ccccc2s1	inconclusive [inhibitor, full curve, poor fit]
COc1ccc(-c2[nH]ncc2/C=N/NC(=O)c2ccc(Br)cc2)c(OC)c1	inconclusive [inhibitor, partial curve, poor fit]
CCC(C)n1c(-c2ccco2)nc2nc3ccccc3nc21 (centres undefined)	inconclusive [inhibitor, full curve]
CCc1sc(C(=O)NCCc2ccc(S(N)(=O)=O)cc2)cc1Br	inactive

SMILES	Potency
O=C1c2cccnc2C(Nc2ccc(Br)cc2Br)N1Cc1cccs1 (centres undefined)	inconclusive [inhibitor, single point]
Cc1ccc(C)c2c3c([nH]c12)-c1nonc1CC3	inactive
CCOC(=O)c1ccccc1C(=O)N1CCOCCOCCOCC1	inconclusive [inhibitor, single point]
N#CC1=C(SCc2ccccc2)NC(=O)CC1c1ccco1 (centres undefined)	inconclusive [inhibitor, full curve, poor fit]
CCN(CC)S(=O)(=O)c1cccc(NC(=O)COC(=O)c2cc(C)oc2C)c1	inconclusive [inhibitor, full curve, poor fit]
Cn1ccnc1SCC(=O)Nc1ccc2ccccc2c1	inactive
COC(=O)CCC(=O)OC1(C)C(=O)C=C2C=C(C3CC3)N(C3CCCCC3)C=C2C1=O (centres undefined)	inactive
COCCN(C)Cc1nc(C(c2ccccc2)c2ccccc2)no1	inactive
C=CCOc1ccc(/C=C/C(=O)OCC(=O)NCc2cccs2)cc1	inconclusive [inhibitor, full curve, poor fit]
NS(=O)(=O)c1ccc(NC(=S)NCC2CCCO2)cc1 (centres undefined)	inactive
O/N=C1\CC(O)Cc2nonc21 (centres undefined)	inconclusive [inhibitor, full curve, poor fit]
Cc1ccc(CNC(=O)CCC2CCCN(Cc3cccc4c3OCO4)C2)o1 (centres undefined)	inactive
COc1ccc(NC(=O)c2cc3c(CO)cnc(C)c3oc2=Nc2cccc(F)c2)c(OC)c1	inconclusive [inhibitor, single point]
CCOc1ccc(C)cc1S(=O)(=O)Nc1ccc(Cl)cn1	inconclusive [inhibitor, full curve, poor fit]
COc1ccccc1N1CCN(C(C)C(=O)N2CC(C)OC(C)C2)CC1 (centres undefined)	inactive
Cc1ccccc1CN1CCC(N2CCC(C(=O)NCC3CCCO3)CC2)CC1 (centres undefined)	inconclusive [inhibitor, full curve, poor fit]
CCN(Cc1nc2cc(Cl)ccc2c(=O)[nH]1)C(=O)c1ccc(C)c(NC(=O)c2ccco2)c1	inactive
O=[N+]([O-])c1cccc(/C=N\N2CCN(Cc3ccccc3Cl)CC2)c1	inconclusive [inhibitor, partial curve, poor fit]
CCOc1ccc(C(=O)NCC(c2ccco2)N2CCc3ccccc3C2)cc1 (centres undefined)	inconclusive [inhibitor, single point]
Cc1cc(C)c(C(N)=O)c(SCC(=O)c2cc(C)c(C)cc2C)n1	inconclusive [inhibitor, full curve, poor fit]
Cc1cc2nc(C(F)(F)F)[nH]c(=O)n2n1	inconclusive [inhibitor, full curve, poor fit]
COCCn1c(N)c(S(=O)(=O)c2cccs2)c2nc3ccccc3nc21	inconclusive [inhibitor, partial curve, poor fit]
CC1CN(C)C(C)CC1NCc1ccc2c(c1)OCO2 (centres undefined)	inconclusive [inhibitor, full curve]

SMILES	Potency
COc1ccc(C2C(C(=O)Nc3ccccn3)=C(C)Nc3ncnn32)c(OC)c1 (centres undefined)	inconclusive [inhibitor, full curve]
COCc1nc2ccccc2n1Cc1ccc(Br)cc1	inconclusive [inhibitor, single point]
COc1ccc(C2CC(c3cccc(Cl)c3)n3nc(N)nc3N2)cc1 (centres undefined)	inconclusive [inhibitor, full curve, poor fit]
Cc1[nH]c2ccccc2c1C(=O)CN1C(=O)NC2(CC(C)CC(C)(C)C2)C1=O (centres undefined)	inconclusive [inhibitor, single point]
CC(=O)Oc1cccc(N2C(=O)C3C4C=CC(C4)C3C2=O)c1 (centres undefined)	inactive
Cc1ccc(Nc2nc(N)nc(CSC(=S)N3CCN(c4ccccc4)CC3)n2)cc1	inconclusive [inhibitor, full curve, poor fit]
O=c1[nH]cnc2nc(-c3ccccc3)c(-c3ccccc3)nc12	inactive
COc1cc(NC(=O)c2cccnc2)ccc1NC(=O)c1ccccc1Cl	inconclusive [inhibitor, partial curve]
CC(C)NCC1CCc2cc(CO)c([N+](=O)[O-])cc2N1 (centres undefined)	inconclusive [inhibitor, single point]
O=C(COc1ccc(F)cc1)N1CCc2ccccc2C1	inactive
COc1ccccc1NC(=O)CCC(=O)OC(C)C(=O)c1ccccc1 (centres undefined)	inconclusive [inhibitor, full curve, poor fit]
CCOc1ccc(NS(=O)(=O)c2ccc(-c3coc(C)n3)cc2)cc1	inconclusive [inhibitor, partial curve]
Cc1onc(-c2ccccc2Cl)c1C(=O)N1CC(C)OC(C)C1 (centres undefined)	inconclusive [inhibitor, full curve]
CCCn1nnc(NC(=O)COc2ccccc2Cl)n1	inconclusive [inhibitor, full curve, poor fit]
O=C(CNC(=S)N(Cc1ccccc1)Cc1cccnc1)NC1CCCCC1	inactive
O=C(CCc1ccccc1)NNC(=S)NCc1ccc(Cl)cc1	inconclusive [inhibitor, full curve, poor fit]
CCCn1c(NC(=O)CSCC(=O)Nc2cc(C)on2)nc2ccccc21	inconclusive [inhibitor, full curve, poor fit]
CCOc1ccccc1CN1CCNC(=O)C1CC(=O)NC1CCCCCC1 (centres undefined)	inconclusive [inhibitor, partial curve, poor fit]
COc1ccc2c(CNC3CCCC3)c(C(=O)O)n(Cc3ccccc3C)c2c1	inactive
COc1ccc(NC(=O)NC(C)c2ccc3c(c2)OCO3)cc1OC (centres undefined)	inconclusive [inhibitor, full curve, poor fit]
CCc1nn2c(=O)cc(COC(=O)c3cccc(NC(=O)c4ccccc4C)c3)nc2s1	inactive
Cc1cc(N2CCOCC2)nc(SCC(=O)c2ccc(Cl)cc2)n1	inconclusive [inhibitor, full curve]
CCCCOC(=O)Cn1c(=O)oc2ccc(C)cc21	inconclusive [inhibitor, full curve]
